Measurements: PMC12136788
This is one part of the list.

B1: chr1:56708525:56708626:+|3pUTR|ENSG00000162409|unk|FALSE|unique (ssRNA)
RNA: GGGAGUUCUACAGUCCGACGAUCACCUUUCUCAAAUUCUUUUUGCCUCUAUUUAUUUUUGCAUUUCACCAACAGUGAUAAAAUAGUUAAAUGAAACAAAGCAAAGUAUCAACAGUCCCUUAAAUGAGAAUCCUUAUCUUUGAUCAACAGAGGAUUGAGCAUCA
B2: chr1:152033651:152033752:-|CDS|ENSG00000163191|unk|FALSE|unique (ssRNA)
RNA: GGGAGUUCUACAGUCCGACGAUCGGAUGGUUAUAACUACACUCUCUCCAAGACAGAGUUCCUAAGCUUCAUGAAUACAGAACUAGCUGCCUUCACAAAGGUACUGGUCCCUGUCUCCCCCACUUCCCCAAACUACCCACAACACAACAGAGGAUUGAGCAUCA
B3: ENSG00000070961:be:win_4201|3pUTR|ENSG00000070961|bound_else_gene|NA|bound_elsewhere_windowed (ssRNA)
RNA: GGGAGUUCUACAGUCCGACGAUCACUGCUGUAUUUUCAGGAAAAAAAAAAAAAGGGGUGUUUCUAUUGAAACUGUACUAAAUUUUUGCCUACAAUUUACCUUGUUAAAUAUUGUAGAUAAAUUGCUAAUACUAAUAGCCAAAUCAACAGAGGAUUGAGCAUCA
B4: ENSG00000107863:be:win_251|CDS|ENSG00000107863|bound_else_gene|NA|bound_elsewhere_windowed (ssRNA)
RNA: GGGAGUUCUACAGUCCGACGAUCAAAAUGGAAACAGAGGAGGAAAACAAAGAAACCGCUUGGAACCAAUGGAUACCAUAUUUGUUAAGCAAGUUAAAGAAGGAGGACCUGCUUUUGAAGCUGGAUUAUGUACAGGUGACCGAACAACAGAGGAUUGAGCAUCA
B5: ENSG00000198589:be:win_4901|CDS|ENSG00000198589|bound_else_gene|NA|bound_elsewhere_windowed (ssRNA)
RNA: GGGAGUUCUACAGUCCGACGAUCCAGAUGCAAUCAGCGAGGUGCUAUCUACUCUUUCUUUAGAAGUCAAUAAGUCUCCGGAAACCAAAAAUGAUAGAGGAAAUGACUUGGACACUAAGGCUACACCGUCAGUUUCAGUUUCAACAACAGAGGAUUGAGCAUCA
B6: chr6:75950561:75951094:-|CDS|ENSG00000112706|control|control|control (ssRNA)
RNA: GGGAGUUCUACAGUCCGACGAUCAGCUUUACAGUAUAUCACCACUAGUUCUAUGACCAUUGCCCCCAAGGGCCGAGAGCUGGUAGUGUUCUUCAGUCUGCGUGUUGCUAACAUGGCCUUCUCCAACGACCUGUUCAACAAGAGCAACAGAGGAUUGAGCAUCA
B7: chr15:52550718:52550819:-|3pUTR|ENSG00000128989|msi1|total|mutant (ssRNA)
RNA: GGGAGUUCUACAGUCCGACGAUCUUUAUAUAAACUUUUUAAAUGCCGAAACUUUUUACUUCCACACUCAGUUUUGGAGACCCCCGAAUAAAAGGCUUCAAUACUCUGCAUUCCAUGCCCUCUGCCACCUGCUUUUUUUUCCCCCAACAGAGGAUUGAGCAUCA
B8: chr16:18805221:18805325:-|3pUTR|ENSG00000157106|unk|total|mutant (ssRNA)
RNA: GGGAGUUCUACAGUCCGACGAUCAAGAAUUCUAUGUUCUGAAAUGCACACUUUCCGAAUGUUUUUCUUUGAAAACAGGCUAACCGUUUUUUCUUUUUUUGACAAAGUUUCAGCUCCUCUUUAAAGUUAUUGUGUCAUUUUUCUCAACAGAGGAUUGAGCAUCA
B9: chr21:32314052:32314153:-|3pUTR|ENSG00000142207|msi1|total|mutant (ssRNA)
RNA: GGGAGUUCUACAGUCCGACGAUCCAUCUCAAAAAAAUAAAAAAAUAAAGUUUGUUUUUCUAUAAAAAGUCAUAACAAAGUAUCCGUAUGACUUUUUGAAUAAGUUAAUUUCUGCCAGUGUUUAAUUAUUUUAUUAAAGAAAAGCAACAGAGGAUUGAGCAUCA
B10: chr7:6162096:6162197:-|3pUTR|ENSG00000008256|msi1|FALSE|unique (ssRNA)
RNA: GGGAGUUCUACAGUCCGACGAUCGUCACAGAACAUUUUGGGGCAGUUUAAUGUGGUACCAAACUGAAAAUAGGAGCUAUUUAUAGAUGGAGCAGCACUUAGUGCUUCAUAGAAAGCAAUGCCUAUUUUUAAAGUUACAAACGCCAACAGAGGAUUGAGCAUCA
B11: ENSG00000213799:stop:overlap|stop_codon|ENSG00000213799|stop_codon|NA|stop_codon (ssRNA)
RNA: GGGAGUUCUACAGUCCGACGAUCUUUUUAAUCGAAAAGCAAAACUUGCACGUCAUCAUAGAAUUCAUACUGGAAAGAAACAUUAGAAAUAUGAAGAAUGUGACAAAGUUUACAGUUGUAAAUCAAGUCUUGAAAGACAGGAGACAACAGAGGAUUGAGCAUCA
B12: chrX:141908562:141908663:+|CDS|ENSG00000155495|unk|total|mutant (ssRNA)
RNA: GGGAGUUCUACAGUCCGACGAUCUCCUCGUUACGAAUUCCUGUGGGGUCCAAGAGCUCAUUCAGAAGUCAUUAAGAGGAAAGCCGCCGAGUUUUUGGCCAUGCUAAAGAAUACCGUCCCUAUUACCUUUCCAUCCUCUUACAACAACAGAGGAUUGAGCAUCA
B13: chr16:70160055:70160156:+|3pUTR|ENSG00000090857|msi1|FALSE|unique (ssRNA)
RNA: GGGAGUUCUACAGUCCGACGAUCUUGUGCUCACCACGAAGGAUGGUCUCUGCCUUCUCUUGUCGGUGUAUGCCAUCUGAACCUAGGAACACAAAGUAUAUUGGCCUCAAACGGAGACCCAGGGUUGCCAGUUUUCCGUGGGCCCAACAGAGGAUUGAGCAUCA
B14: ENSG00000158859:stop:overlap|stop_codon|ENSG00000158859|stop_codon|NA|stop_codon (ssRNA)
RNA: GGGAGUUCUACAGUCCGACGAUCUGAGGCCCCAGUCAGCACCGCAGGCCAUGCACUGCACAAUUCUAAGAAGCGCCACUACAUAGACUAUGAUGCAAAUGAUGUUCCUGGAGUUGUGUGACAUGGUGCCUUGCCCCAGCCACACAACAGAGGAUUGAGCAUCA
B15: chr1:18907414:18907603:-|3pUTR|ENSG00000169991|msi1|FALSE|unique (ssRNA)
RNA: GGGAGUUCUACAGUCCGACGAUCCCUUGAUUUCCCUGAUAACUUGAUGUUCUUCCCUCCCUCGCCAGCCAACAAUAGAGGCUUAGAGAUCUGUAAUUUCUCUGUGAGAAAGUCUGAAGGGGCCAGGCCUGGUCUCUGCUCCCUCAACAGAGGAUUGAGCAUCA
B16: chr1:54216159:54216271:+|CDS|ENSG00000116221|unk|FALSE|unique (ssRNA)
RNA: GGGAGUUCUACAGUCCGACGAUCCUUGGAGCAGCCCGUGGUGGUGCAGAGCGUGGGCACGGAUGGACGUGUCUUCCAUUUCCUAGUGUUUCAACUGAAUACCACAGACCUGGACUGUAACGAGGGUGUCAAGAAUUUGGCCUGCAACAGAGGAUUGAGCAUCA
B17: ENSG00000070961:be:win_751|CDS|ENSG00000070961|bound_else_gene|NA|bound_elsewhere_windowed (ssRNA)
RNA: GGGAGUUCUACAGUCCGACGAUCAAAAAGUCUUUAGAUAAGGAUCCCUUACUUCUAUCAGGUACUCAUGUAAUGGAAGGCUCUGGAAGAAUGGUAGUUACAGCUGUAGGUGUAAAUUCUCAAACUGGAAUUAUCUUUACCUUACAACAGAGGAUUGAGCAUCA
B18: ENSG00000070961:be:win_4451|3pUTR|ENSG00000070961|bound_else_gene|NA|bound_elsewhere_windowed (ssRNA)
RNA: GGGAGUUCUACAGUCCGACGAUCGUUUUGAAGCAACUGUUUAAUUUUUAAAAUUUUUGAAAACUUGCUAAUAACCUUUUGUUCAGAAUUUAGUAGAUUGUUUAAUGCAGGACAUCAACUACAUAAUGAAAGAUGCUUGAAAUGCAACAGAGGAUUGAGCAUCA
B19: chr7:127373434:127373542:-|CDS|ENSG00000048405|unk|FALSE|unique (ssRNA)
RNA: GGGAGUUCUACAGUCCGACGAUCAAAACAUAGUGAUUCAAAACAUGAUGGCACUUCUAACUCUCCUAGUAAAAAGUAUGAAGUAGCUGACGUCGGUAUUGAAGUAAAAGUCACAAAAAACUUUUCUCUUCACAGAUGCAAUAACAACAGAGGAUUGAGCAUCA
B20: ENSG00000109332:stop:overlap|stop_codon|ENSG00000109332|stop_codon|NA|stop_codon (ssRNA)
RNA: GGGAGUUCUACAGUCCGACGAUCCAGACAGAGAUAAGUACAAUAGGUUAGCAAGAGAGUGGACAGAGAAAUACGCUAUGUUGUAGGGUACAACAGAAUAUCUCGGGAAUGGACUCAGAAGUAUGCCAUGUGAUGCUACCUUAACAACAGAGGAUUGAGCAUCA
B21: ENSG00000151502:stop:overlap|stop_codon|ENSG00000151502|stop_codon|NA|stop_codon (ssRNA)
RNA: GGGAGUUCUACAGUCCGACGAUCCCACCUCCCUGGGUGAGGUGCGGACCCCCAGCCAGCUGUCUGACAACAACUGCAGGCAGUAGGCCCCCAGGGCCGAGAAGAUGCUGGGCACCCACCCAGCACCCCCAUCUACCAACACCACAACAGAGGAUUGAGCAUCA
B22: chr1:154944474:154944574:-|3pUTR|ENSG00000163346|msi1_unk|total|mutant (ssRNA)
RNA: GGGAGUUCUACAGUCCGACGAUCUCGAGGCCCAGCACGAGGACUUACCCUGGGGUUUUGUCCGGUUUGGAAGCAGCUGUCCCCCGGGGGUGAAGUCCCCCCCCUUUUUUUUUUUACCCCUGCUUCUCCCACGGCUUCACCUCCCAACAGAGGAUUGAGCAUCA

target: MSI1 full-length (mouse, UniProt Q61474 1-362); experiment: nsRBNS (natural sequence RNA bind-n-seq); RBNS binding buffer (assumed for nsRBNS): 25 mM Tris pH 7.5, 150 mM KCl, 3 mM MgCl2, 0.01% Triton X-100, 500 ug/ml BSA, 20 U/ml SUPERase-In, 4 C; UNK is unkempt and MSI1 is Musashi-1; names of the RNAs are library labels; protein concentration not given here; high values mean tight binding
Chain of UniProt Q61474 (Q61474 whole entry): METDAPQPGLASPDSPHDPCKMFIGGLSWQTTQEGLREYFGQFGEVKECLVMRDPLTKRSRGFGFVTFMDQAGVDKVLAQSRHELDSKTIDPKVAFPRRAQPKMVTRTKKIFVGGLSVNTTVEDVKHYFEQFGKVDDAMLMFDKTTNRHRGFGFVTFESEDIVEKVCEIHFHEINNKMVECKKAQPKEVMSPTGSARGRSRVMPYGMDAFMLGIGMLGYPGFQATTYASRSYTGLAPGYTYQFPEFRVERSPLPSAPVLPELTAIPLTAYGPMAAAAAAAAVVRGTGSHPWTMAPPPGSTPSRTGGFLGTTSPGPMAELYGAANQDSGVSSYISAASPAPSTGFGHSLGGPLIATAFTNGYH

Binder	binding signal [enrichment R]
B1	2.24
B2	0.797
B3	0.987
B4	0.485
B5	0.481
B6	0.499
B7	0.699
B8	0.464
B9	1.43
B10	1.08
B11	0.725
B12	0.404
B13	0.303
B14	0.433
B15	0.911
B16	0.488
B17	0.769
B18	0.619
B19	0.903
B20	2.05
B21	1.77
B22	0.714
